Some of the results follow.
Legend:
[1] = tested on: HSkMC (human skeletal muscle cells); test: cytotoxicity call (relative viability < 0.9); conditions: 10 µM
[2] = tested on: HepG2; test: cytotoxicity call (relative viability < 0.9); conditions: 10 µM
[3] = tested on: S. aureus RN4220; test: growth inhibition call (relative growth <= 0.2); conditions: 50 µM

Structure (SMILES) | cytotoxicity call [1] | cytotoxicity call [2] | growth inhibition call [3]
COc1cc(CO)cc(I)c1O[C@H]1C=C(C(=O)NCCO)C[C@@H](NC[C@@H]2CCCO2)[C@@H]1O | inactive | inactive | inactive
C[C@@H]1CN([C@H](C)CO)C(=O)Cc2cc(NS(=O)(=O)c3ccccc3)ccc2O[C@H]1CN(C)CC1CC1 | inactive | inactive | inactive
Cc1noc(C)c1NC(=O)Nc1ccc2c(c1)C(=O)N([C@@H](C)CO)C[C@@H](C)[C@H](CN(C)Cc1ccccc1)OCCCC[C@@H](C)O2 | inactive | inactive | inactive
N[C@@H](Cn1ccc(=O)c(O)c1)C(=O)O | inactive | inactive | inactive
CN1CCN(C(=O)C[C@H]2CC[C@@H]3[C@H](COc4ccc(NC(=O)c5cscn5)cc4C(=O)N3C)O2)CC1 | inactive | inactive | inactive
C[C@@H]1CN([C@H](C)CO)C(=O)Cc2cc(NC(=O)C3CC3)ccc2O[C@@H]1CN(C)Cc1ccc(Oc2ccccc2)cc1 | inactive | active | inactive
Cc1ccc(S(=O)(=O)N(C)C[C@H]2Oc3c(NC(=O)c4cc(C)nn4C)cccc3C(=O)N([C@@H](C)CO)C[C@@H]2C)cc1 | inactive | inactive | inactive
CC(C)(C)S(=O)N1Cc2cc(C(=O)N3CCN(Cc4ccccc4)CC3)nc(-c3cccc(C#CCC4CCCC4)c3)c2[C@H]1CCO (some centres undefined) | inactive | active | inactive
Cc1noc(C)c1NC(=O)Nc1ccc2c(c1)C(=O)N([C@H](C)CO)C[C@@H](C)[C@H](CN(C)C(=O)NC1CCCCC1)OCCCC[C@@H](C)O2 | inactive | inactive | inactive
COc1ccc(S(=O)(=O)N(C)C[C@H]2Oc3ccc(NC(=O)Nc4c(C)noc4C)cc3C(=O)N([C@@H](C)CO)C[C@H]2C)cc1 | inactive | inactive | inactive
COc1cccc(NC(=O)N2C[C@H](O)COC[C@H]3O[C@H](CC(=O)NCCCN4CCOCC4)CC[C@@H]32)c1 | inactive | inactive | inactive
COCCOC(=O)N1C(=O)[C@@]2(c3cc(C#CC4=CCCCC4)ccc31)[C@H](c1ccccc1OCCO)N1[C@H](c3ccccc3)[C@H](c3ccccc3)OC(=O)[C@H]1[C@@H]2C(=O)N1CCCCCCC1 | inactive | inactive | inactive
Cn1cccc1[C@@H](CN)N1CCCC1 | inactive | inactive | inactive
C[C@@H]1CN([C@H](C)CO)C(=O)c2cc(NC(=O)Nc3ccc(F)cc3)ccc2O[C@@H]1CN(C)Cc1ccc(Oc2ccccc2)cc1 | active | active | inactive
CCS(=O)(=O)Nc1ccc2c(c1)C(=O)N(C)C[C@H](OC)[C@@H](C)CN(Cc1ccccn1)[C@H](C)CO2 | inactive | inactive | inactive
COc1ccccc1S(=O)(=O)N[C@H]1C=C[C@@H](CC(=O)N2CCN(C)CC2)O[C@H]1CO | inactive | inactive | inactive
CC(C)(C)CC(=O)N1C[C@@H]2c3nc(N4CCOCC4)ncc3CS(=O)(=O)[C@H]2C1 | inactive | inactive | inactive
Cc1noc(C)c1NC(=O)N(C)C[C@H]1Oc2c(NC(=O)c3cnccn3)cccc2C(=O)N([C@H](C)CO)C[C@H]1C | inactive | inactive | inactive
C=CC[C@H](CC(=O)NCCO)C(=O)N[C@H](COC(=O)[C@@H](CC=C)CC(=O)OC(C)(C)C)c1ccccc1 | inactive | inactive | inactive
C[C@@H]1CCCCO[C@H](CN(C)Cc2ccc3c(c2)OCO3)[C@@H](C)CN([C@@H](C)CO)C(=O)c2cc(NS(=O)(=O)c3cccs3)ccc2O1 | inactive | inactive | inactive
COc1ccc(CN(C)C[C@@H]2OCCCC[C@H](C)Oc3ccc(NC(=O)Cc4ccccc4)cc3C(=O)N([C@@H](C)CO)C[C@@H]2C)cc1 | inactive | inactive | inactive
O=C1CN(S(=O)(=O)Cc2ccccc2)C[C@H]2[C@@H](c3ccc(C#Cc4cccc(F)c4)cc3)[C@H](CO)N12 | inactive | active | inactive
C[C@@H]1CN([C@@H](C)CO)C(=O)c2cc(/C=C/c3ccccc3)cnc2O[C@H]1CN(C)S(=O)(=O)c1cn(C)cn1 | inactive | inactive | inactive
CO[C@H]1CN(C)C(=O)c2cc(NS(=O)(=O)c3cn(C)cn3)ccc2OC[C@H](C)N(Cc2cccc(F)c2)C[C@@H]1C | inactive | inactive | inactive
COCC(=O)N1[C@@H]2c3cccc(=O)n3C[C@@H]2[C@@H](CO)[C@@H]1C(=O)NCc1ccccc1 | inactive | inactive | inactive
CC(C)C1CCC(C(=O)NC(Cc2ccccc2)C(=O)O)CC1 (centres undefined) | inactive | inactive | inactive
Cc1ccc(S(=O)(=O)N(C)C[C@@H]2OCCCC[C@H](C)Oc3ccc(NC(=O)Nc4ccc5c(c4)OCO5)cc3C(=O)N([C@H](C)CO)C[C@H]2C)cc1 | inactive | inactive | inactive
C[C@@H]1CN([C@@H](C)CO)C(=O)c2cccc(NS(=O)(=O)c3cn(C)cn3)c2O[C@H]1CN(C)S(=O)(=O)c1ccc(Cl)cc1 | inactive | inactive | inactive
